# Test results: the supplement of paper PMC8728848
# This is one part of the list.
# Columns and labels:
# Test in all cases: glycan array binding signal (z-score within array); higher = stronger binding
# Conditions in all cases: glycan notation: IUPAC condensed, linker removed
# Gal(a1-3)Gal = molecular target: Gal(a1-3)Gal
# Summary of the method: (§1)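 Negative Z-scores can be read as non-binding. The Z-score is calculated within each array and then averaged across arrays of one protein sequence at different concentrations or buffers and across linkers. Arrays, 3228 in all, were curated from the Consortium for Functional Glycomics database and kept only where the protein sequence was available.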
# Gal(a1-3)Gal(b1-3)GlcNAc = molecular target: Gal(a1-3)Gal(b1-3)GlcNAc
# Summary of the method: as §1
# [1] = molecular target: Gal(a1-3)Gal(b1-3)GlcNAc(b1-2)Man
# Summary of the method: as §1
# [2] = molecular target: Gal(a1-3)Gal(b1-3)GlcNAc(b1-2)Man(a1-3)[Gal(a1-3)Gal(b1-3)GlcNAc(b1-2)Man(a1-6)]Man(b1-4)GlcNAc(b1-4)GlcNAc
# Summary of the method: as §1
# [3] = molecular target: Gal(a1-3)Gal(b1-3)GlcNAc(b1-3)GalNAc
# Summary of the method: as §1
# [4] = molecular target: Gal(a1-3)Gal(b1-3)GlcNAc(b1-6)GalNAc
# Summary of the method: as §1
# [5] = molecular target: Gal(a1-3)Gal(b1-3)[Fuc(a1-4)]GlcNAc(b1-2)Man(a1-3)[Gal(a1-3)Gal(b1-3)[Fuc(a1-4)]GlcNAc(b1-2)Man(a1-6)]Man(b1-4)GlcNAc(b1-4)GlcNAc
# Summary of the method: as §1
# Gal(a1-3)Gal(b1-4)Glc = molecular target: Gal(a1-3)Gal(b1-4)Glc
# Summary of the method: as §1
# Gal(a1-3)Gal(b1-4)GlcNAc = molecular target: Gal(a1-3)Gal(b1-4)GlcNAc
# Summary of the method: as §1
# [6] = molecular target: Gal(a1-3)Gal(b1-4)GlcNAc(b1-2)Man
# Summary of the method: as §1
# [7] = molecular target: Gal(a1-3)Gal(b1-4)GlcNAc(b1-2)Man(a1-3)[Gal(a1-3)Gal(b1-4)GlcNAc(b1-2)Man(a1-6)]Man(b1-4)GlcNAc(b1-4)GlcNAc
# Summary of the method: as §1
# [8] = molecular target: Gal(a1-3)Gal(b1-4)GlcNAc(b1-3)GalNAc
# Summary of the method: as §1
# [9] = molecular target: Gal(a1-3)Gal(b1-4)GlcNAc(b1-6)GalNAc
# Summary of the method: as §1
# [10] = molecular target: Gal(a1-3)Gal(b1-4)[Fuc(a1-3)]GlcNAc
# Summary of the method: as §1
# [11] = molecular target: Gal(a1-3)Gal(b1-4)[Fuc(a1-3)]GlcNAc(b1-2)Man(a1-3)[Gal(a1-3)Gal(b1-4)[Fuc(a1-3)]GlcNAc(b1-2)Man(a1-6)]Man(b1-4)GlcNAc(b1-4)GlcNAc
# Summary of the method: as §1
# Gal(a1-3)GalNAc = molecular target: Gal(a1-3)GalNAc
# Summary of the method: as §1
# [12] = molecular target: Gal(a1-3)[Gal(a1-4)]Gal(b1-4)GlcNAc
# Summary of the method: as §1
# [13] = molecular target: Gal(a1-4)Gal(b1-3)GlcNAc(b1-2)Man(a1-3)[Gal(a1-4)Gal(b1-3)GlcNAc(b1-2)Man(a1-6)]Man(b1-4)GlcNAc(b1-4)GlcNAc
# Summary of the method: as §1
# Gal(a1-4)Gal(b1-4)Glc = molecular target: Gal(a1-4)Gal(b1-4)Glc
# Summary of the method: as §1
# Gal(a1-4)Gal(b1-4)GlcNAc = molecular target: Gal(a1-4)Gal(b1-4)GlcNAc
# Summary of the method: as §1
# [14] = molecular target: Gal(a1-4)Gal(b1-4)GlcNAc(b1-2)Man(a1-3)[Gal(a1-4)Gal(b1-4)GlcNAc(b1-2)Man(a1-6)]Man(b1-4)GlcNAc(b1-4)GlcNAc
# Summary of the method: as §1
# [15] = molecular target: Gal(a1-4)Gal(b1-4)GlcNAc(b1-3)Gal(b1-4)Glc
# Summary of the method: as §1
# Gal(a1-4)GlcNAc = molecular target: Gal(a1-4)GlcNAc
# Summary of the method: as §1
# Gal(a1-6)Glc = molecular target: Gal(a1-6)Glc
# Summary of the method: as §1
# Gal(b1-2)Gal = molecular target: Gal(b1-2)Gal
# Summary of the method: as §1
# Gal(b1-3)Gal = molecular target: Gal(b1-3)Gal
# Summary of the method: as §1
# Gal(b1-3)Gal(b1-4)GlcNAc = molecular target: Gal(b1-3)Gal(b1-4)GlcNAc
# Summary of the method: as §1
# Gal(b1-3)GalNAc = molecular target: Gal(b1-3)GalNAc
# Summary of the method: as §1
# [16] = molecular target: Gal(b1-3)GalNAc(a1-3)[Fuc(a1-2)]Gal(b1-4)Glc
# Summary of the method: as §1
# [17] = molecular target: Gal(b1-3)GalNAc(a1-3)[Fuc(a1-2)]Gal(b1-4)GlcNAc
# Summary of the method: as §1
# Gal(b1-3)GalNAc(b1-3)Gal = molecular target: Gal(b1-3)GalNAc(b1-3)Gal
# Summary of the method: as §1
# [18] = molecular target: Gal(b1-3)GalNAc(b1-3)Gal(a1-4)Gal(b1-4)Glc
# Summary of the method: as §1
# [19] = molecular target: Gal(b1-3)GalNAc(b1-4)Gal(b1-4)Glc
# Summary of the method: as §1
# [20] = molecular target: Gal(b1-3)GalNAc(b1-4)[Neu5Ac(a2-3)]Gal(b1-4)Glc
# Summary of the method: as §1
# Gal(b1-3)GlcNAc = molecular target: Gal(b1-3)GlcNAc
# Summary of the method: as §1
# [21] = molecular target: Gal(b1-3)GlcNAc(a1-3)Gal(b1-4)GlcNAc
# Summary of the method: as §1
# [22] = molecular target: Gal(b1-3)GlcNAc(a1-6)Gal(b1-4)GlcNAc
# Summary of the method: as §1
# Gal(b1-3)GlcNAc(b1-2)Man = molecular target: Gal(b1-3)GlcNAc(b1-2)Man
# Summary of the method: as §1
binder,measurement,setting,value
CpGal16 (Clavelina picta) (protein) MAKMITNYVGKRIECIMVATDMMSTVFSLASATGDLPFYINFRQRENSIVMNTRVHGKWQYEKSQSSGGMNFYEPFRLVVEVRPSVFKVTVSTMGEEDGITFNLQYSQITIKPDEIVAMHLGYCNLRSELLVTDL,glycan array binding signal (z-score),Gal(a1-3)Gal,-0.36
same,glycan array binding signal (z-score),Gal(a1-3)Gal(b1-3)GlcNAc,1.01
same,glycan array binding signal (z-score),[1],1.68
same,glycan array binding signal (z-score),[2],-0.196
same,glycan array binding signal (z-score),[3],0.115
same,glycan array binding signal (z-score),[4],1.66
same,glycan array binding signal (z-score),[5],-0.202
same,glycan array binding signal (z-score),Gal(a1-3)Gal(b1-4)Glc,0.403
same,glycan array binding signal (z-score),Gal(a1-3)Gal(b1-4)GlcNAc,-0.332
same,glycan array binding signal (z-score),[6],-0.009
same,glycan array binding signal (z-score),[7],1.84
same,glycan array binding signal (z-score),[8],-0.282
same,glycan array binding signal (z-score),[9],-0.315
same,glycan array binding signal (z-score),[10],-0.491
same,glycan array binding signal (z-score),[11],-0.152
same,glycan array binding signal (z-score),Gal(a1-3)GalNAc,-0.34
same,glycan array binding signal (z-score),[12],0.21
same,glycan array binding signal (z-score),[13],-0.186
same,glycan array binding signal (z-score),Gal(a1-4)Gal(b1-4)Glc,-0.094
same,glycan array binding signal (z-score),Gal(a1-4)Gal(b1-4)GlcNAc,-0.382
same,glycan array binding signal (z-score),[14],-0.117
same,glycan array binding signal (z-score),[15],-0.233
same,glycan array binding signal (z-score),Gal(a1-4)GlcNAc,-0.201
same,glycan array binding signal (z-score),Gal(a1-6)Glc,-0.353
same,glycan array binding signal (z-score),Gal(b1-2)Gal,-0.316
same,glycan array binding signal (z-score),Gal(b1-3)Gal,-0.285
same,glycan array binding signal (z-score),Gal(b1-3)Gal(b1-4)GlcNAc,0.05
same,glycan array binding signal (z-score),Gal(b1-3)GalNAc,-0.391
same,glycan array binding signal (z-score),[16],1.88
same,glycan array binding signal (z-score),[17],1.11
same,glycan array binding signal (z-score),Gal(b1-3)GalNAc(b1-3)Gal,-0.529
same,glycan array binding signal (z-score),[18],-0.233
same,glycan array binding signal (z-score),[19],-0.404
same,glycan array binding signal (z-score),[20],-0.454
same,glycan array binding signal (z-score),Gal(b1-3)GlcNAc,0.703
same,glycan array binding signal (z-score),[21],1.46
same,glycan array binding signal (z-score),[22],0.048
same,glycan array binding signal (z-score),Gal(b1-3)GlcNAc(b1-2)Man,0.015
